Results published in the supplement of paper PMC11876631.
Where a chain is given by its changes, count along the chain named. Numbers in names are those of the source. ± gives the standard deviation of the averaged measurements. Laboratory Escherichia coli strains with one amino-acid change in an essential protein, pooled on minimal glucose agar with carbenicillin or gentamicin at twice the control MIC (plus kanamycin and chloramphenicol for the plasmids), 48 h. Fold change of barcode share against drug-free plates; higher = less susceptible. Active = above 20 in both replicates (the paper's putatively resistant). '<' = one read or none on drug, '>' = one read or none on a drug-free plate. Shares are relative, so most strains fall below 1 when a few take over. Listed are strains with at least 15 reads on both drug-free plates, and hits; most hits rest on fewer reference reads. Replicate rank correlation about 0.5. Edits are read from barcodes.

B1: murB F54Q (protein)
chain: MNHSLKPWNTFGIDHNAQHIVCAEDEQQLLNAWQYATAEGQPVLILGEGSNVLQLEDYRGTVIINRIKGIEIHDEPDAWYLHVGAGENWHRLVKYTLQEGMPGLENLALIPGCVGSSPIQNIGAYGVELQRVCAYVDSVELATGKQVRLTAKECRFGYRDSIFKHEYQDRFAIVAVGLRLPKEWQPVLTYGDLTRLDPTTVTPQQVFNAVCHMRTTKLPDPKVNGNAGSFFKNPVVSAETAKALLSQFPTAPNYPQADGSVKLAAGWLIDQCQLKGMQIGGAAVHRQQALVLINEDNAKSEDVVQLAHHVRQKVGEKFNVWLEPEVRFIGASGEVSAVETIS
B2: murB F54P (protein)
chain: B1 chain with Q54P
B3: murB I63A (protein)
chain: B1 chain with Q54F, I63A
B4: asd L141A (protein)
chain: MKNVGFIGWRGMVGSVLMQRMVEERDFDAIRPVFFSTSQLGQAAPSFGGTTGTLQDAFDLEALKALDIIVTCQGGDYTNEIYPKLRESGWQGYWIDAASSLRMKDDAIIILDPVNQDVITDGLNNGIRTFVGGNCTVSLMAMSLGGLFANDLVDWVSVATYQAASGGGARHMRELLTQMGHLYGHVADELATPSSAILDIERKVTTLTRSGELPVDNFGVPLAGSLIPWIDKQLDNGQSREEWKGQAETNKILNTSSVIPVDGLCVRVGALRCHSQAFTIKLKKDVSIPTVEELLAAHNPWAKVVPNDREITMRELTPAAVTGTLTTPVGRLRKLNMGPEFLSAFTVGDQLLWGAAEPLRRMLRQLA
B5: murB V210A (protein)
chain: B1 chain with Q54F, V210A
B6: asd L141Q (protein)
chain: B4 chain with A141Q
B7: murB V284A (protein)
chain: B1 chain with Q54F, V284A

Target: Escherichia coli (laboratory strain)
Experiment: barcode share on antibiotic plates over drug-free plates; higher = less susceptible
Protocol: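 A pool of E. coli strains, each edited to carry one amino-acid change in an essential protein, was grown for 48 h on minimal glucose agar with or without antibiotic; strain barcodes were sequenced; mean of two replicates.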

[1] = antibiotic: carbenicillin, 2× MIC (3.1 µg/mL)
[2] = antibiotic: gentamicin, 2× MIC (MIC 0.45 µg/mL)

Protein | fold change of barcode share [1] | fold change of barcode share [2]
B1 | 0.32 ± 0.076 | –
B2 | 0.37 ± 0.17 | < 0.0149
B3 | 0.363 ± 0.17 | < 0.00958
B4 | 0.354 ± 0.011 | 0.0128 ± 0.011
B5 | 0.167 ± 0.048 | < 0.0145
B6 | 0.407 ± 0.21 | < 0.00864
B7 | 0.189 ± 0.14 | < 0.0149
